# Test results taken from the RNAGym collection of RNA variant scans (doi:10.7554/elife.90254).
# Read counts are not given, so values of variants with three or more changes are uncertain.
# B1: LINE1-full (parent)
# chain: UACGUAGGUGGUUUUCCCCUGAUAGUGCUAAGGGGGCCUGGAAGUUUGGACUGGGCAGAGCUCAACACAGCGUGGCAAAGUGGCUGUGGCUAGACUGCCUCUCUGGAUUCCUCGUCACUCAGCAGGGCAUCUCUGAGAGAAAUGCC
# Variants of: B1
# Test: self-cleavage, relative activity (ratio to wild type); higher = more cleavage; in vitro, sequencing; the parent is a self-cleaving ribozyme
row,Variant,self-cleavage
1,UACGUAGGUGGUUUUCCCCUGAUAGUGCUAAGGUGGCCUGGAAGUUUGGACCUGGCAGAGCUCAACACAGCGUGGCAAAGUGGCUGUGGCUAGACUGCCUCUCUGGAUUCCUCGUCACUCAGCAGGGCAUCUCUGAGAGAAAUGCC [G34U U52C G53U],1.17
2,UACGUAGGUGGUUUUCCCCUGAUAGUGCUAAGGAGGCCUGGAAGCUUGGACUGGGCAGAGCUCAACGCAGCGUGGCAAAGUGGUUGUGGCUAGACUGCCACUCUGGAUUCCUCGUCACUCAGCAGGGCAUCUCUGAGAGAAAUGCC [G34A U45C A67G C84U U100A],0
3,UACGUAGGUGGUUUUCCCCUGAUAGUGCUAAGGCGGCCUGGAAGUUUGGACUGGGCAGAGCUCAACACAGCGUGGCAAAGUGGCUGUGGCUAGACAGCCUCUCUGGAUUCCUUGUCACUCAGCAGGGCAUCUCUGAGAGAAAUGCC [G34C U96A C113U],0.14
4,UACGUAGGUGGUUUUCCCCUGAUAGUGCUAAGGUGGCCUGGAAGUUAGGACUGGGCAGAGCUCAACACAGCGAGGCAAAGUGGCUGUGGCUAGACUGCCUCUCUGGAUUCCUCGUCACUCAGCAGGGCAUCUCUGAGAGAAAUGCC [G34U U47A U73A],1.83
5,UACGUAGGUGGUUUUCCCCUGAUAGUGCUAAGGAGGCCUGGAAGUUCGGACUGGGCAGAGCUCAACACAGCGUGGCGAAGUGGCUGUGGCUAGACUGCCUCUCUGGAUUCCUCGUCACUCAGCAGGGCAUCUCUGAGAGAAAUGCC [G34A U47C A77G],1.88
6,UACGUAGGUGGUUUUCCCCUGAUAGUGCUAAGGUGGCCUGGAAGUUUGGACUGGGCAGAGCUCAACACAGCGUGGCAAGGUGGCUGUGGCUAGACUGCCUCUCAGGAUUCCUCGUCACUCAGCUGGGCAUCUCUGAGAGAAAUGCC [G34U A79G U104A A124U],1.67
7,UACGUAGGUGGUUUUCCCCUGAUAGUGCUAAGGUGGCCUGGAAGUCUGGACUGGGCAGAGCUCAACACAGCGUGGCAAAGUGGCUGUGGCUAGACUGCCUCUCUGGAUUCCUCGUCACUCAGCGGGGCAUCUCUGAGAGAAAUGCC [G34U U46C A124G],2.04
8,UACGUAGGUGGUUUUCCCCUGAUAGUGCUAAGGUGGCCUGGAAGUUCGGACUGGGCAGAGCUCAACACAGCGUGGCAAAGUGGCUGUGGCUAGACUGCCUCUCUGGAUUCCUCGUCACUCAGCGGGGCAUCUCUGAGAGAAAUGCC [G34U U47C A124G],1.47
9,UACGUAGGUGGUUUUCCCCUGAUAGUGCUAAGGAGGCCUGGAAGUUUGGACUGGGCAGAGCCCAACACAGCGUGGCAAAGUGGCUGUGGCUAGACUGCCUCUCUGGAUUCCCCGUCACUCAGCAGGGCAUCUCUGAGAGAAAUGCC [G34A U62C U112C],0.06
10,UACGUAGGUGGUUUUCCCCUGAUAGUGCUAAGGUGGCCUGGAAGUUUGGACUGGGCAGAGCUCAACACAGCGUGGCAAAGUGGCUGUGGCUAGACUGCCUCUCUGGACUCCUUGUCACUCAGCAGGGCAUCUCUGAGAGAAAUGCC [G34U U108C C113U],1.32
11,UACGUAGGUGGUUUUCCCCUGAUAGUGCUAAGGCGGCCUGGAAGUUUGGACUGGGCAGAGCUCUACACAGCGGGGCAAAGUGGCUGUGGCUAGACUGCCUCUCUGGAUUCCUCGUCACUCAGCAGGGCAUCUCUGAGAGAGAUGCC [G34C A64U U73G A141G],1.02
12,UACGUAGGUGGUUUUCCCCUGAUAGUGCUAAGGUGGCCUGGAAGUUUGGACUGGGCAGAGCUCAACACAGCGUGGCAAAGUGGCUGUGGCUGGACUGCCUCUCUGGAUUCCUCGUCACUCAGCAGGGCAUCUCUGAGAGUAAUGCC [G34U A92G A140U],0.04
13,UACGUAGGUGGUUUUCCCCUGAUAGUGCUAAGGAGGCCUGGAAGUUUGGACUGAGCAGGGCUCAACACAGCGUGGCAAAGUGGCUGUGGCUAGACUGCCUCUCUGGAUUCCUCGUCACUCAGCAGGGCAUCUCUGAGAGAAAUGCC [G34A G54A A59G],0.26
14,UACGUAGGUGGUUUUCCCCUGAUAGUGCUAAGGUGGCCUGGAAGUUUGGACAGGGCAGAGCUCAACACAGCGUGGCAAAGUGGCUGUGGCUAGACUGCCUCUCUGGAUUCCUCGUCACUCAGCUGGGCAUCUCUGAGAGAAAUGCC [G34U U52A A124U],1.32
15,UACGUAGGUGGUUUUCCCCUGAUAGUGCUAAGGUGGCCUGGAAGUUUGGACUGGGCAGAGCUCAACACAGCGUGGCAAAGUGGCUGUGGAUAGACUGCCUCUCUGGAUUCCUCGUCACUCGGCAGGGCAUCUCUGAGAGAAAUGCC [G34U C90A A121G],0.04
16,UACGUAGGUGGUUUUCCCCUGAUAGUGCUAAGGGAGCCUGGGAGUUUGGACUGGGCAGAGCUCAACACAGCGUGGCAAAGUGGCUGUGGCUAGACUGCCUCUCUGGAUUCCUCGUCCCUCAGCAGGGCAUCUCUGAGAGAAAUGCC [G35A A42G A117C],1.77
17,UACGUAGGUGGUUUUCCCCUGAUAGUGCUAAGGAGGCCUGGAAGUUUGGACUGGGCAGAGCUCAACACAGCGUGGCAAAGUGGCUGUGGCUAGACUGCCUCUCUGGAUUCCUCGUCACUCAGCAGGGCAACUCUGAGAGACAUGCC [G34A U130A A141C],0.89
18,UACGUAGGUGGUUUUCCCCUGAUAGUGCUAAGGUGGCCUGGAAGUUUGGACUGGGCAGAGCUCAACACAGCGUGGCAAAGUGGCUGUGGCUAGACUGCCUCUCUGGAUUCCUCGUCACUCAGCAGGUCAUCUCUGAGAGAAAUACC [G34U G127U G144A],1.39
19,UACGUAGGUGGUUUUCCCCUGAUAGUGCUAAGGUGGCCUGGAAGUUUGGACUGGGCAGGGCUCAACACAGCGUGGCAGAGUGGCUGUGGCUAGACUGCCUCUCUGGAUUCCUCGUCACUCAGCAGGGCAUCUCUGGGAGAAAUGCC [G34U A59G A78G A136G],0.1
20,UACGUAGGUGGUUUUCCCCUGAUAGUGCUAAGGUGGCCUGGAAGCUUGGACUGGGCAGAGCUCAACACAGCGUGGCAAAGUGGCUGUGGCUAGACUGCCUCUCUGGAUUCCUCGACACUCAGCAGGGCAUCUCUGAGAGAAAUGCC [G34U U45C U115A],0.64

row,Variant,self-cleavage
1,UACGUAGGUGGUUUUCCCCUGAUAGUGCUAAGGAGGCCUGGAAGUUUGGACUGGGCAGAGCUCAACACAGCGUGGCAAAGUGGCUGUGGCUAGACUGCCUCUCCGGAUUCCUCGUCACUCAGCAGGGCAUCUCUAAGAGGAAUGCC [G34A U104C G135A A140G],1.83
2,UACGUAGGUGGUUUUCCCCUGAUAGUGCUAAGGAGGCCUGGAAGUUUGGACUGGGCAGAGCUCAACACAGCGUGGCAAAGUGGCUGUGGCUAGACUGCCUCUCUGGAUUCCUCGUCACUCAGCAGGGCAUCUCUGGGUGAAAUGCC [G34A A136G A138U],0.58
3,UACGUAGGUGGUUUUCCCCUGAUAGUGCUAAGGUGGCCUGGAAGUUUGGACUGGGCGGAGCUCAACACAGCGUGGCAAAGUGGCUGUGGCUAGACUGCCUCUCUGGAUUCCUCGCCACUCAGCAGGGCAUCUCUGAGAGAAAUGCC [G34U A57G U115C],2.04
4,UACGUAGGUGGUUUUCCCCUGAUAGUGCUAAGGCGGCCUGGAAGUUUGGACUGGGCAGAGCUCAACACAGCGUGGCAAAGUGGCUGUGGCUAGACUGCCUCUCUGGAUUCCUCGUCACUCAGCAGGGCAACUCUGGGAGAAAUGCC [G34C U130A A136G],1.16
5,UACGUAGGUGGUUUUCCCCUGAUAGUGCUAAGGUGGCCUGGAAGUUUGGACUGGGCAGAGCUCAACACAGCGUGGCAAAGUGGCUGUGGCUAGACUGCCUCUCUGGAUUCCUCGUCACUCAGCAGGGCUUCUCUGAGAGAAACGCC [G34U A129U U143C],1.58
6,UACGUAGGUGGUUUUCCCCUGAUAGUGCUAAGGAGGCCUGGAAGUUUGGACUGGGCAGAGCUCAACACAGCGUGGCAAAGUGGCUGUGGCCAGACUGCCUCUCUGGAUUCCUCGUCACUCAGCAGGGCGUCUCUGAGAGAGAUGCC [G34A U91C A129G A141G],0.46
7,UACGUAGGUGGUUUUCCCCUGAUAGUGCUAAGGUGGCCUGGAAGUUUUGACUGGGCAGAGCUCAACCCAGCGUGGCAAAGUGGCUGUGGCUAGACUGCCUCUCCGGAUUCCUCGUCACUCAGCAGGGCAUCUCUGAGAGAAAUGCC [G34U G48U A67C U104C],0.09
8,UACGUAGGUGGUUUUCCCCUGAUAGUGCUAAGGUGGCCUGGAAGUCUGGGCUGGGCAGAGCUCAGCACAGCGUGGCAAAGUGGCUGUGGCUAGACUGCCUCUCUGGAUUCCUCGUCACUCAGCAGGGCAUCUCUGAGAGAAACGCC [G34U U46C A50G A65G U143C],0.1
9,UACGUAGGUGGUUUUCCCCUGAUAGUGCUAAGGCGGCCUGGAAGUUUGGACUGGGCAGAGCUCAACACAGCGUGGCAAAGUGGCUGUGGCUAGACUGCCUCUCUGGAUCCCUCGUCACUCAGCAGGGCAUCCCUGAGAGAAAUGCC [G34C U109C U132C],1.99
10,UACGUAGGUGGUUUUCCCCUGAUAGUGCUAAGGAGGCCUGGAAGUUUGGACUGGGCAGAGCUCAACACAGCGUGGCAAAGUGGCUGUGGCUAGACUGCCUCUCUAGAUUCCUCGUCACCCUGCAGGGCAUCUCUGAGAGAAAUGCC [G34A G105A U119C A121U],1.54
11,UACGUAGGUGGUUUUCCCCUGAUAGUGCUAAGGUGGCCUGGAAGUUUGGACAGGGCAGAGCUCAACACAGCGUGGCAAAGUGGCUGUUGCUGGACUGCCUCUCUGGAUUCCUUGUCACUCAGCAGGGCAUCUCUGAGAGAAAUGCC [G34U U52A G88U A92G C113U],0.07
12,UACGUAGGUGGUUUUCCCCUGAUAGUGCUAAGGAGGCCUGGAAGUUUGGACUGGGCAGAGCCCAACACAGCGUGGCAAAGUGUCUGUGGCUAGACUGCCUCUCUGGAUUCCUCGUCACUCAGCAGGGCAUCUCUGAGAGAAAUGCC [G34A U62C G83U],0.01
13,UACGUAGGUGGUUUUCCCCUGAUAGUGCUAAGGAGGCCUGGAAGUUUGGACUGGGCAGAGCUCAACACAGCGUGGCAAAGUGGCUGUGGCUAGACUGCCUCUCAUGAUUCCUCGUCACUCAGCAGGGCAUCUCUGAGAGAAAUGCC [G34A U104A G105U],1.36
14,UACGUAGGUGGUUUUCCCCUGAUAGUGCUAAGGUGGCCUGGAAGUUUGGACUGGGCAGAGCUCAACACAGCGUGGCUAAGUGGCUGUGGCUAGACUGCCUCUCUGGAUUCCACGUCACUCAGCAGGGCAUCUCUGAGAGAAAUGCC [G34U A77U U112A],1.24
15,UACGUAGGUGGUUUUCCCCUGAUAGUGCUAAGGUGGCCUGGAAGUUUGGACUGGGCAGAGCUCAACACAGCGUGGCAAAGUGGCUGUGGCUAGACUGCCUCUCUGGAUUCCUCGUCACUCAGCAGGGCAUCUCUGAGAGAAGAGCC [G34U A142G U143A],1.65
16,UACGUAGGUGGUUUUCCCCUGAUAGUGCUAAGGAGGCCUGGAAGUUUGGACCGGGCAGAGCACAACACAGCGUGGCAAAGUGGCUGUGGCUAGACUGCCUCUCUGGAUUCCUCGUCACUCAGCAGGGCAUCUCUGAGAGAAAUGCC [G34A U52C U62A],0.03
17,UACGUAGGUGGUUUUCCCCUGAUAGUGCUAAGGUGGCCUGGAAGUUUGGACUGGGCAGAGCUCAACACAGCGUGGCAAAGCGGCCGUGGCUAGACUGCCUCUCUGGAUUCCUCGUCACUCAGCAGGGCAUCUCUGAGAGAAAUGCC [G34U U81C U85C],0
18,UACGUAGGUGGUUUUCCCCUGAUAGUGCUAAGGAGGCCUGGAAGUAUGGACUGGGCAGAGCUCAACACAGCGUGGCAAAGUGGCUGUGGCAAGACUGCCUCUCUGGAUUCCUCGUCACUCAGCAGGGCAUCUCUGAGGGAAAUGCC [G34A U46A U91A A138G],0.39
19,UACGUAGGUGGUUUUCCCCUGAUAGUGCUAAGGUGGCCUGGAGGUUUGGACUGGGCAGAGCUCAACACAGCGUGGCAAAGUGGCUGUGGCUAGACUGCCUCUCUGGAUUCCUCGACACUCAGCAGGGCAUCUCUGAGAGAAAUGCC [G34U A43G U115A],1.2
